{"source": "paper PMC4336329", "about": "(PLoS ONE, 2015)", "note": "In all, about 310,000 compounds went through this assay and about 2,200 (0.71%) showed an effect of 50% or more. Effects have a minus sign here. The list shows a part of the results.", "data": [{"target": "human ether-à-go-go-related gene (hERG) potassium channel (human, UniProt Q12809)", "sequence (Q12809 whole entry, looked up)": "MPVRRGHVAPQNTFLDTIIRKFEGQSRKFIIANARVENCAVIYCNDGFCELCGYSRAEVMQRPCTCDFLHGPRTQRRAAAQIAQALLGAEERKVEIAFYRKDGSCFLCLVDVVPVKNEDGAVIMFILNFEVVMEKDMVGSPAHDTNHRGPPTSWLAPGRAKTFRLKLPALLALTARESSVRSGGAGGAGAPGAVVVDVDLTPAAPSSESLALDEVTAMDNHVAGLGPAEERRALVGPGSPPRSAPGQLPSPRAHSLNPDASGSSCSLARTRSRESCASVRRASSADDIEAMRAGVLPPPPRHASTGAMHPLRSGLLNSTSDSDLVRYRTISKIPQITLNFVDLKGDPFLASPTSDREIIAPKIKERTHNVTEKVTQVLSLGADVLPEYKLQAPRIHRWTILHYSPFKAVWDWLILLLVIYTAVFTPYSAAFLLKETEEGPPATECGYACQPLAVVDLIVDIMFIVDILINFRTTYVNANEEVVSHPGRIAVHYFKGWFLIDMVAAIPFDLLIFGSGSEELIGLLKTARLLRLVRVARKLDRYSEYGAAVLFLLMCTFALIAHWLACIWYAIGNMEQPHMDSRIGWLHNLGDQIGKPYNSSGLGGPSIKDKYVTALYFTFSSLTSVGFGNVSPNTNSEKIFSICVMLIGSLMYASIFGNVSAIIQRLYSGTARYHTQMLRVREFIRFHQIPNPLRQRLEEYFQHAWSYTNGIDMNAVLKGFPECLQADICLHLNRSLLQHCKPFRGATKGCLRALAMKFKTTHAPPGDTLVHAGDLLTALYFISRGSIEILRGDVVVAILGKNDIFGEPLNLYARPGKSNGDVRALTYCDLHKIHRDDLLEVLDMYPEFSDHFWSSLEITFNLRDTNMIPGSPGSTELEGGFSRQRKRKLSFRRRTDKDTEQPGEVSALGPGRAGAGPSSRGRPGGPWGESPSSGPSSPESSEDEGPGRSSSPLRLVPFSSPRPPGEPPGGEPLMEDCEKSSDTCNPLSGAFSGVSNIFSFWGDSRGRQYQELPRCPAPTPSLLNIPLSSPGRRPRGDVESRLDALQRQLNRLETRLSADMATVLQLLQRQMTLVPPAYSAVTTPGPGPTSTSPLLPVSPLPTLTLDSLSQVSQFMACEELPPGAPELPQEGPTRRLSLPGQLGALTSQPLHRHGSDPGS", "test": "primary screen, population patch clamp on CHO cells stably expressing hERG", "units": {"hERG current change (%, negative = inhibition) at 1uM": "%"}, "values": [{"smiles": "Cc1ccc(NC(=O)C/C(N)=N/OC(=O)c2ccccc2)cc1", "hERG current change (%, negative = inhibition) at 1uM": 22}, {"smiles": "CCc1cccc(CC)c1NC(=O)CSc1nnc(C(C)C)n1CC", "hERG current change (%, negative = inhibition) at 1uM": 11.1}, {"smiles": "O=C(COC(=O)c1ccc(S(=O)(=O)N2CCCC2)cc1)NCc1ccco1", "hERG current change (%, negative = inhibition) at 1uM": 4.7}, {"smiles": "COc1ccc(CCn2c(C)cc3c(c2=O)C(c2ccc4c(c2)OCO4)C(C#N)=C(N)O3)cc1OC", "note": "(centres unmarked)", "hERG current change (%, negative = inhibition) at 1uM": 1.14}, {"smiles": "CCOc1ccc(C(C)=O)cc1COC(=O)c1cnc(Cl)c(Cl)c1", "hERG current change (%, negative = inhibition) at 1uM": 10.1}, {"smiles": "CCN(CC)C(=O)COCc1cc(-c2ccc3c(c2)OCO3)on1", "hERG current change (%, negative = inhibition) at 1uM": 11}, {"smiles": "CCn1cc(C(=O)OC)c(=O)c2cc(S(=O)(=O)N(C)C3CCCCC3)ccc21", "hERG current change (%, negative = inhibition) at 1uM": 3.91}, {"smiles": "CCOc1cc(C2NC(=O)NC(c3ccccc3)=C2C(C)=O)ccc1OC(C)=O", "note": "(centres unmarked)", "hERG current change (%, negative = inhibition) at 1uM": 20.6}, {"smiles": "CC(C)(C)n1cnc2cc(NC(=O)c3ccccc3)ccc21", "hERG current change (%, negative = inhibition) at 1uM": 10.9}, {"smiles": "CCOC(=O)N1CCN(S(=O)(=O)c2ccc3c(c2)CCN3C(=O)C2CCC2)CC1", "hERG current change (%, negative = inhibition) at 1uM": 4.95}, {"smiles": "Cc1cc([N+](=O)[O-])ccc1NC(=S)NC1CCCC1", "hERG current change (%, negative = inhibition) at 1uM": 7.52}, {"smiles": "Cc1cc(C)cc(CC2CC(=O)N(c3ccc4c(c3)OCCO4)C2=O)c1", "note": "(centres unmarked)", "hERG current change (%, negative = inhibition) at 1uM": 9.97}, {"smiles": "COc1cc(CN2CCNC(=O)C2CC(=O)NC2CCCCC2)cc(OC)c1", "note": "(centres unmarked)", "hERG current change (%, negative = inhibition) at 1uM": 5.85}, {"smiles": "CC(=O)N1c2ccc(S(=O)(=O)N3CCCC(C(=O)Nc4ccc(F)cc4)C3)cc2CC1C", "note": "(centres unmarked)", "hERG current change (%, negative = inhibition) at 1uM": 9.36}, {"smiles": "O=C1CCCc2c1cc(-c1ccccc1)n2-c1ccc(O)cc1", "hERG current change (%, negative = inhibition) at 1uM": 6.74}, {"smiles": "Cc1cc(C)cc(NC(=O)CSc2nnc(CNC(=O)c3ccco3)n2C)c1", "hERG current change (%, negative = inhibition) at 1uM": 14.2}, {"smiles": "O=C(NC(=S)Nc1ccc(S(=O)(=O)Nc2nccs2)cc1)c1ccccc1F", "hERG current change (%, negative = inhibition) at 1uM": 19.6}, {"smiles": "CCOC(=O)N1CCC(NC(=O)Cn2c3c(c(-c4ccccc4Cl)cc2=O)CCC3)CC1", "hERG current change (%, negative = inhibition) at 1uM": 9.3}, {"smiles": "COc1cccc(CN2CCNC(=O)C2CC(=O)N(C)CCc2ccccn2)c1OC", "note": "(centres unmarked)", "hERG current change (%, negative = inhibition) at 1uM": 12.6}, {"smiles": "COc1ccc(NC(=O)CCN2CCN(S(=O)(=O)c3cc(Cl)ccc3Cl)CC2)cc1", "hERG current change (%, negative = inhibition) at 1uM": 3.07}, {"smiles": "O=C(NCC1CCCCC1)c1cc(S(=O)(=O)N2CCOCC2)ccc1F", "hERG current change (%, negative = inhibition) at 1uM": 11.2}, {"smiles": "CCOC(=O)C1CCN(c2c(NCCCN(CC)Cc3ccccc3)c(=O)c2=O)CC1", "hERG current change (%, negative = inhibition) at 1uM": -6.06}, {"smiles": "CC(OC(=O)CNC(=O)c1cccs1)C(=O)Nc1ccc(S(N)(=O)=O)cc1", "note": "(centres unmarked)", "hERG current change (%, negative = inhibition) at 1uM": 4.95}]}]}
